Measurements reported in the BET-seq Pho4 binding data (Le et al. 2018).
The list shows a part of the results. Values were computed here from the reads of four pooled replicates and scatter widely.

target: T1, Pho4 (S. cerevisiae) (UniProt P07270); test: relative binding free energy (BET-seq); higher = weaker binding; conditions: reference: library average
T1 sequence: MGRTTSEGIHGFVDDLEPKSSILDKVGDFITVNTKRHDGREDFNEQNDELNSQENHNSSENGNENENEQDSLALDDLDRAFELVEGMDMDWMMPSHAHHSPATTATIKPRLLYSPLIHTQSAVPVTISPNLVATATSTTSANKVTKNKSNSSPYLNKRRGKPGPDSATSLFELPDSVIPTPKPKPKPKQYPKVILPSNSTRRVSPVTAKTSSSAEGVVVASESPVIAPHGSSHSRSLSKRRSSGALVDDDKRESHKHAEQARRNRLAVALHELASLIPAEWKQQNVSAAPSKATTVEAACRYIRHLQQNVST

Sequence	relative binding free energy
GCCGTCACGTGGGGGT	0.07 kcal/mol
TTATCCACGTGTGGGT	-0.12 kcal/mol
GAAGCCACGTGGTGGG	-0.08 kcal/mol
GTGATCACGTGAATTG	0.29 kcal/mol
GTGGTCACGTGGGGTC	0.05 kcal/mol
AGGGCCACGTGTTGTT	-0.08 kcal/mol
CTATACACGTGAGGTG	0.32 kcal/mol
GAATACACGTGGTGGG	0.1 kcal/mol
CAAAGCACGTGTTGTG	-0.11 kcal/mol
TGTACCACGTGTATAG	-0.08 kcal/mol
GGAGTCACGTGGAAGT	0.28 kcal/mol
AAGCTCACGTGAGGTG	0.42 kcal/mol
ACAGTCACGTGTTGTT	0.08 kcal/mol
GGAATCACGTGGGTTC	0.06 kcal/mol
AGCAGCACGTGTGCGT	0.07 kcal/mol
TAGAGCACGTGTATGT	-0.25 kcal/mol
ATGGGCACGTGGAGTG	-0.09 kcal/mol
AGGTGCACGTGTGGGG	0.06 kcal/mol
ACGTTCACGTGCGGTT	0.2 kcal/mol
AGGTACACGTGCTTGG	0 kcal/mol
ATTTCCACGTGGGGGT	-0.13 kcal/mol
GTGCTCACGTGCGTGT	0.04 kcal/mol
AGGGACACGTGAGTAT	0.35 kcal/mol

Sequence	relative binding free energy
AATTGCACGTGGTTTA	-0.08 kcal/mol
TTTCTCACGTGTTTGA	0.31 kcal/mol
AGAATCACGTGGTTAG	0.17 kcal/mol
TTAAGCACGTGAGTTA	-0.02 kcal/mol
CGGTGCACGTGATGGC	0.09 kcal/mol
TGATGCACGTGAAAGG	0.22 kcal/mol
GGGGGCACGTGAGCCT	0.2 kcal/mol
CAAGGCACGTGCGGGT	-0.15 kcal/mol
TGATCCACGTGTATGG	0 kcal/mol
AAGTACACGTGATATT	0.21 kcal/mol
CGGGGCACGTGCCGGT	-0.27 kcal/mol
GTCGGCACGTGGTAAG	-0.09 kcal/mol
ATCTTCACGTGGAATT	0.31 kcal/mol
GGTTACACGTGCTAGT	0.11 kcal/mol
GTCAGCACGTGGCTGT	-0.05 kcal/mol
ATTTACACGTGGTCAT	-0.07 kcal/mol
TTGTTCACGTGTAACG	0.33 kcal/mol
TGGCGCACGTGGTCAT	-0.19 kcal/mol
ATGGGCACGTGTACAT	-0.02 kcal/mol
TGAAACACGTGGTTGA	-0.12 kcal/mol
TAGGGCACGTGCTGTG	-0.21 kcal/mol
TTCGGCACGTGGACGG	0.01 kcal/mol
TGTGTCACGTGTGTGT	0.08 kcal/mol

Sequence	relative binding free energy
TGGTTCACGTGAGGGT	0.43 kcal/mol
TAGAACACGTGTTGGA	0.1 kcal/mol
GGTTACACGTGTCTGG	-0.09 kcal/mol
AGGCGCACGTGTTGAG	-0.02 kcal/mol
TGCGTCACGTGTGGGA	0.06 kcal/mol
AAAGTCACGTGTGTGA	0.08 kcal/mol
ACGTTCACGTGGGCAG	0.13 kcal/mol
TGTTCCACGTGTGTTA	0.11 kcal/mol
AGGTTCACGTGCAAGG	0.34 kcal/mol
GTGCGCACGTGGGAAA	-0.07 kcal/mol
GAGTACACGTGTGGGC	0.27 kcal/mol
ATTAGCACGTGGCCGT	-0.06 kcal/mol
AATTGCACGTGGTGAG	-0.06 kcal/mol
TTAGGCACGTGTTGGT	-0.07 kcal/mol
CGGAGCACGTGGGTGC	-0.3 kcal/mol
TCTATCACGTGGGATG	0 kcal/mol
GATGGCACGTGGTAAT	-0.01 kcal/mol
GGTGTCACGTGATGCT	0.28 kcal/mol
GGGGCCACGTGAATTG	0.18 kcal/mol
ACAGTCACGTGGTGTT	-0.08 kcal/mol
TGGTTCACGTGAGGCC	0.5 kcal/mol
TCTAACACGTGGGGAG	-0.1 kcal/mol
AATGCCACGTGTTTGG	-0.03 kcal/mol

Sequence	relative binding free energy
GTCATCACGTGGGTAA	0.2 kcal/mol
GGCGGCACGTGAGGGT	0.17 kcal/mol
GATAACACGTGGTGTA	-0.26 kcal/mol
TTGATCACGTGAATTG	0.37 kcal/mol
TAATGCACGTGGATTG	-0.01 kcal/mol
AGTGCCACGTGGCAGG	-0.27 kcal/mol
ATGAGCACGTGTGTTC	-0.04 kcal/mol
TAGTTCACGTGTTCTA	0.27 kcal/mol
GAATTCACGTGGTCGT	0.3 kcal/mol
TGCGCCACGTGTGTGT	-0.13 kcal/mol
AGGGGCACGTGGTTCG	-0.14 kcal/mol
AACGGCACGTGTAGTG	0.09 kcal/mol
TAATACACGTGTTAGG	0.03 kcal/mol
CCAGTCACGTGGGGTA	0.03 kcal/mol
GCAGGCACGTGGTATT	0.02 kcal/mol
GGATTCACGTGAGGAG	0.46 kcal/mol
GATTGCACGTGCGTTT	0.1 kcal/mol
GTTGCCACGTGCTGTG	-0.12 kcal/mol
TACGGCACGTGGTTAA	-0.06 kcal/mol
ATGGACACGTGTCTAG	0.15 kcal/mol
TTTTACACGTGGTGAC	0.17 kcal/mol
GGAATCACGTGGTGGG	0.04 kcal/mol
TTGTTCACGTGCGTCA	0.14 kcal/mol

Sequence	relative binding free energy
GGGGTCACGTGGTGAC	0.07 kcal/mol
GATGGCACGTGAGTAA	0.16 kcal/mol
GCATTCACGTGAATGG	0.4 kcal/mol
CGTTGCACGTGATATG	-0.06 kcal/mol
GGTGTCACGTGTTAAA	0.3 kcal/mol
AGTAGCACGTGGGGGC	-0.33 kcal/mol
TATAACACGTGTTGTC	0 kcal/mol
GGACTCACGTGGGGTG	0.18 kcal/mol
TGAGGCACGTGCCGGC	-0.02 kcal/mol
TAGTGCACGTGGCTGC	0.04 kcal/mol
GAAGTCACGTGGGGTG	0 kcal/mol
GTTTCCACGTGGCGGG	0.12 kcal/mol
ATGTACACGTGGTTCT	-0.1 kcal/mol
TAAGTCACGTGTTGGG	-0.01 kcal/mol
GCGTGCACGTGGAAGT	-0.01 kcal/mol
AGGTCCACGTGGCGGA	0.03 kcal/mol
GCGTCCACGTGAGGGG	0.17 kcal/mol
TTTCTCACGTGAGTGA	0.29 kcal/mol
AGTCGCACGTGGGGTC	-0.15 kcal/mol
GCAGGCACGTGGGTGT	-0.21 kcal/mol
CGATGCACGTGAGTTG	0.2 kcal/mol
TTACTCACGTGTATGA	0.21 kcal/mol
AACAGCACGTGATGGG	0.14 kcal/mol
